Source: the supplement of paper PMC10600219
Structures can show the parent of a compound that is named as a salt. The full ranking holds about 2,800 compounds; the median of “cell viability relative to vehicle” is about 1.1, and the lowest 2% start at about 0.19. The list shows a part of the results.

These molecules were tested on NCI-H2228 parental (assay: cell viability relative to vehicle (fraction of vehicle); NCI-H2228 is an ALK-positive lung cancer line and DTP means drug-tolerant persister; higher = less growth inhibition). Details: 100 nM; treatment time 6 days.
How it was run: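 Drug-tolerant persister NCI-H2228 cells, produced by 13 days in 1000 nM of a targeted drug, and their parental counterparts were seeded into 384-well plates and, the following day, given the 3114-agent TargetMol anti-cancer compound library at 100 nM or DMSO vehicle. After 6 days, the CellTiter-Glo 3D Cell Viability Assay was used to read ATP. Each entry reports viability compared with vehicle-treated cells.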

In order of rising cell viability:
1. Cc1ncc(CCCN(C)C)cc1Nc1ncc2c(n1)-c1ccc(C(F)(F)F)cc1NC(=S)C2  0.178
2. CCC(=O)N1CCN(c2ccc(-n3c(=O)ccc4cnc5ccc(-c6cnc7ccccc7c6)cc5c43)cc2C(F)(F)F)CC1 [Torin 1]  0.306
3. CC[C@]1(O)C[C@H]2CN(CCc3c([nH]c4ccccc34)[C@@](C(=O)OC)(c3cc4c(cc3OC)N(C=O)[C@H]3[C@@](O)(C(=O)OC)[C@H](OC(C)=O)[C@]5(CC)C=CCN6CC[C@]43[C@@H]65)C2)C1 [Vincristine sulfate]  0.317
4. CCOc1ccc(Nc2nc(-c3c(C)nc4ccccn34)cs2)cc1  0.331
5. COCc1c(-c2ccc(NC(=O)Nc3cc(C(F)(F)F)ccc3F)c(F)c2)c2c(N)ncnn2c1CN1CCOCC1  0.546
6. Nc1nc2[nH]cnc2c(=S)[nH]1 [Thioguanine]  0.582
7. CCOc1cc2ncc(C#N)c(Nc3ccc(F)c(Cl)c3)c2cc1NC(=O)/C=C/CN(C)C [Pelitinib]  0.685
8. CN1[C@@H]2CC[C@H]1C[C@@H](OC(=O)c1c[nH]c3ccccc13)C2 [Tropisetron hydrochloride]  0.831
9. CC(C(=O)O)c1ccc2c(c1)[nH]c1ccc(Cl)cc12 (stereo not given) [Carprofen]  0.867
10. COc1cc(-c2cn(C)c(=O)c3cnccc23)cc(OC)c1CN(C)C  0.896
11. C=CCc1cccc(/C=N/NC(=O)CN2CCN(Cc3ccccc3)CC2)c1O  0.946
12. NC[C@@H]1O[C@H](O[C@H]2[C@@H](O)[C@H](O[C@@H]3[C@@H](O)[C@H](N)C[C@H](N)[C@H]3O[C@H]3O[C@H](CO)[C@@H](O)[C@H](O)[C@H]3N)O[C@@H]2CO)[C@H](N)[C@@H](O)[C@@H]1O [Paromomycin Sulfate]  0.966
13. N#Cc1c(O)c2c(-c3ccc(-c4ccccc4O)cc3)csc2[nH]c1=O  0.969
14. CN(C)CCN1C(=O)c2cccc3cc(NC(N)=O)cc(c23)C1=O  0.978
15. Cc1onc(-c2ccccc2)c1-c1ccc(S(N)(=O)=O)cc1 [Valdecoxib]  0.98
16. Cc1cc(/C=C/C#N)cc(C)c1Nc1ccnc(Nc2ccc(C#N)cc2)n1 [Rilpivirine]  0.983
17. COc1cc2c(N3CCN(C(=O)Nc4ccc(OC(C)C)cc4)CC3)ncnc2cc1OCCCN1CCCCC1 [Tandutinib]  0.993
18. O=C1N[C@](c2ccc(N3CCOCC3)cc2)(c2ccsc2)CC(O)=C1Sc1ccccc1Cl  0.999
19. COc1ccc([C@@H]2OC[C@H]3[C@@H]2CO[C@@H]3c2ccc3c(c2)OCO3)cc1OC [Fargesin]  1
20. O=S(=O)(NCCSSCCNS(=O)(=O)c1cc(Cl)ccc1Cl)c1cc(Cl)ccc1Cl  1.01
21. Cc1ncc(NC(=O)c2cccc(C(F)(F)F)c2)cc1-c1cnc(OC2CCOCC2)c(N2CCOCC2)c1  1.01
22. N[C@@H](CSCCB(O)O)C(=O)O  1.01
23. O=C(O)[C@H]1O[C@@H](Oc2cc3oc(-c4ccc(O)cc4)cc(=O)c3c(O)c2O)[C@H](O)[C@@H](O)[C@@H]1O [Scutellarin]  1.01
24. Cc1nc2ccc(-n3ncc(C(=O)c4cc5ccccc5[nH]4)c3N)cc2[nH]1  1.01
25. CCN(CC)CCNC(=O)c1c(C)[nH]c(/C=C2\C(=O)Nc3ccc(F)cc32)c1C [Sunitinib Malate]  1.02
26. Cc1c(C)c(NCC(=O)N(C)C2CCN(Cc3ccc(C(N)=O)cc3)CC2)c(C)c(C)c1N  1.02
27. C[C@]12CCC(=O)C=C1CC[C@@H]1[C@@H]2[C@@H](O)C[C@@]2(C)[C@H]1CC[C@]2(O)C(=O)CO [Hydrocortisone]  1.02
28. O=C(OC[C@H]1O[C@@H](OC(=O)c2cc(O)c(O)c(OC(=O)c3cc(O)c(O)c(O)c3)c2)[C@H](OC(=O)c2cc(O)c(O)c(OC(=O)c3cc(O)c(O)c(O)c3)c2)[C@@H](OC(=O)c2cc(O)c(O)c(OC(=O)c3cc(O)c(O)c(O)c3)c2)[C@@H]1OC(=O)c1cc(O)c(O)c(OC(=O)c2cc(O)c(O)c(O)c2)c1)c1cc(O)c(O)c(OC(=O)c2cc(O)c(O)c(O)c2)c1 [Tannic acid]  1.03
29. c1cnoc1 [Isoxazole]  1.04
30. CC(C)c1cc2c(c(O)c1O)[C@@]13CCCC(C)(C)[C@@H]1C[C@@H]2OC3=O [Carnosol]  1.04
31. CO/N=C(\C(=O)N[C@@H]1C(=O)N2C(C(=O)O)=C(CSc3nnnn3C)CS[C@H]12)c1csc(N)n1 [Cefmenoxime hydrochloride]  1.04
32. CNCCCC1c2ccccc2C=Cc2ccccc21 [Protriptyline hydrochloride]  1.04
33. N=C(N)c1ccc(OCCCCCOc2ccc(C(=N)N)cc2)cc1 [Pentamidine isethionate]  1.04
34. O=c1ccc2cc(O)c(O)cc2o1 [Esculetin]  1.05
35. CN(C)CCOC(C)(c1ccccc1)c1ccccn1 (stereo not given) [Doxylamine succinate]  1.06
36. COc1cccc(-c2cc(=O)c3ccccc3o2)c1N  1.06
37. COc1cc2nccc(Oc3ccc(NC(=O)Nc4cc(C)on4)c(Cl)c3)c2cc1OC [Tivozanib]  1.06
38. COCCNCc1ccc(-c2cc3nccc(Oc4ccc(NC(=O)C5(C(=O)Nc6ccc(F)cc6)CC5)cc4F)c3s2)nc1 [Sitravatinib]  1.06
39. O=C(Nc1cc(Oc2cc(F)c(NC(=O)C3(C(=O)Nc4ccc(F)cc4)CC3)cc2F)ccn1)C1CC1 [Altiratinib]  1.06
40. Oc1ccc2c(c1)OCO2 [Sesamol]  1.06
41. Oc1c(I)cc(Cl)c2cccnc12 [Clioquinol]  1.07
42. O=C(Nc1ccccc1C(=O)NC1CCCCNC1=O)c1cc2ccccc2s1 (stereo not given)  1.07
43. OCCOCCN1CCN(Cc2cccc(Oc3ccccc3)c2)CC1  1.07
44. COc1ccccc1C(=O)Nc1cc2c(cc1N1CCCC1)n(C)c(=O)n2C  1.07
45. Cc1cc(=O)[nH]c(=S)[nH]1 [Methylthiouracil]  1.08
46. O=C(CN1CCN(C(=O)c2ccco2)CC1)Nc1cc(C(F)(F)F)ccc1Cl  1.08
47. O[C@@H]1[C@@H](O)[C@@H](OC/C=C/c2ccccc2)O[C@H](CO[C@@H]2OC[C@H](O)[C@H](O)[C@H]2O)[C@H]1O [Rosavin]  1.08
48. O=C(Nc1ccccc1)c1cc([N+](=O)[O-])ccc1Cl  1.08
49. CC(C)n1cnc2c(NCc3ccccc3)nc(NCCCO)nc21 [Bohemine]  1.08
50. Cc1ccc(C2Nc3ccccc3-n3c(-c4ccccc4)c4c(=O)n(C)c(=O)n(C)c4c32)o1 (stereo not given)  1.09
51. CN[C@@H](C)C(=O)N[C@H]1CN(C(=O)CC(C)C)CC[C@H]2CC[C@@H](C(=O)NC(c3ccccc3)c3ccccc3)N2C1=O  1.09
52. Nc1nc(CC(=O)Nc2ccc(CCNC[C@H](O)c3ccccc3)cc2)cs1 [Mirabegron]  1.09
53. O=C(Nc1cccc(C(F)(F)F)c1)Nc1cc(S(=O)(=O)NC2CC2)ccc1-c1ccsc1  1.09
54. O=C(OCC(O)CO)c1ccccc1Nc1ccnc2cc(Cl)ccc12 (stereo not given) [Glafenine]  1.09
55. Cc1cc(O)c2c(c1)C(=O)c1cccc(O)c1C2=O [Chrysophanic Acid]  1.09
56. CC(C)(C#N)c1cc(Cn2cncn2)cc(C(C)(C)C#N)c1 [Anastrozole]  1.1
57. CC(NC(=O)C(Cc1ccccc1)NC(=O)OCc1ccccc1)C(=O)CF (stereo not given)  1.1
58. CC(C(=O)O)c1ccc(-c2ccccc2)c(F)c1 (stereo not given) [Flurbiprofen]  1.1
59. O=[N+]([O-])c1ccc(-c2nc(-c3ccc(F)cc3)c(-c3ccncc3)[nH]2)cc1  1.1
60. Cc1ccc(-c2ccc(F)cc2COc2ccc(CCC(=O)O)cc2)cc1  1.1
61. COc1ccc2c(c1)Nc1ccccc1S2 [2-Methoxyphenothiazine]  1.11
62. CC(CN1c2ccccc2S(=O)(=O)c2ccccc21)N(C)C (stereo not given) [Dioxopromethazine hydrochloride]  1.11
63. CC1(C)CC[C@]2(C(=O)O)CCC3=C([C@@H](CCl)C[C@@H]4[C@@]5(C)C[C@H](O)[C@H](O)[C@@](C)(C(=O)O)[C@@H]5CC[C@@]34C)[C@@H]2C1 [Senegenin]  1.11
64. C=CC(=O)Nc1cc(Nc2ncc(C(=O)Nc3cc(NC(=O)c4cc(OC)c(OC)c(OC)c4)ccc3C)c(NC)n2)ccc1C  1.13
65. O=C1c2c(O)cccc2C([C@@H]2O[C@H](CO)[C@@H](O)[C@H](O)[C@H]2O)c2cc(CO)cc(O)c21 (stereo not given in full) [Aloin]  1.13
66. C=C1C(=O)O[C@@H]2/C=C(\C)CC/C=C(\C)CC[C@@H]12 [Costunolide]  1.13
67. CC(C)OC(=O)N1CCC(Oc2ncnc3c2cnn3-c2ccc(S(C)(=O)=O)cc2F)CC1  1.15
68. CCCCC(=O)O[C@H]1CC[C@H]2[C@@H]3CCc4cc(O)ccc4[C@H]3CC[C@]12C [Estradiol valerate]  1.15
69. c1ccc2c(Cc3c[nH]c4ccccc34)c[nH]c2c1 [3,3'-Diindolylmethane]  1.16
70. C=C1C(=O)[C@]23[C@H](O)[C@H]1CC[C@H]2[C@@]12CO[C@]3(O)[C@@H](O)[C@@H]1C(C)(C)CC[C@@H]2O [Oridonin]  1.17
71. CC1CNC(=O)NC1=O (stereo not given) [Dihydrothymine]  1.19
72. Cn1cnc2[nH]c(=O)[nH]c(=O)c21 [7-Methylxanthine]  1.24
73. COc1ccc(CCC(=O)O)cc1OC [3,4-Dimethoxyhydrocinnamic acid]  1.26
74. CO/N=C(\C(=O)N[C@@H]1C(=O)N2C(C(=O)OCOC(=O)C(C)(C)C)=C(/C=C\c3scnc3C)CS[C@H]12)c1csc(N)n1 [Cefditoren pivoxil]  1.26
75. Oc1ccc(/C=C/c2cc(O)cc(O)c2)cc1 [Resveratrol]  1.28
